In PubChem BioAssay AID652106 (National Center for Advancing Translational Sciences (NCATS), 2013):
About 500 (0.14%) of roughly 370,000 compounds were called active. Inconclusive results, whose numbers are uncertain, are shown with a selection of clear calls. Calls follow the shape of the dose curve; as a rule, active = well fitted activation curve with a large enough effect; inconclusive = small, poorly fitted or top-dose-only effect; inactive = no such curve, though single readings can be large or run the other way. A potency beside an inconclusive call is a rough fit, not a confirmed value.

assay: qHTS of alpha-syn Inhibitors; conditions: Yeast expressing alpha-synuclein, BacTiter-Glo, 24 h; Potency: growth rescue unless noted; growth rescue (activation): at 46.1 µM (top of the series) unless noted; also: nearly all actives have a fitted effect of over 65% in size; as to growth rescue (activation): % of control where 0% means no effect
How it was run: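 Rescue of yeast growth: cells expressing toxic alpha-synuclein, induced in galactose at OD600 0.02, incubated with compound 24 h at 30 C. ATP luminescence quantified growth; inhibitors of toxicity appear as activators.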
Potency is read from the fitted curve at half-maximal effect; tags tell the direction and shape of the fitted curve.

Potency, inactive:
Cc1ccc(Sc2nnc(-c3ccccc3)cc2C#N)cc1
c1coc(CN(Cc2ccco2)c2ncnc3c2oc2ccccc23)c1
CN(C(=O)C1CCCC1)C1CCS(=O)(=O)C1 (stereo unspecified)
Cc1ccc(C)c(NC(=O)c2ccc(OCc3c(C)noc3C)cc2)c1
O=C(Nc1ccccc1)OCCCCOC(=O)Nc1ccccc1
CCOc1ccc(C(C(=O)NCCC(C)C)N(CCO)C(=O)c2snc(C(N)=O)c2N)cc1 (stereo unspecified)
O=C(COc1ccc(Cl)cc1)NCCSCc1ccccc1Cl
Clc1ccc(-c2cc3ccccc3[nH]2)cc1
O=C1NC[C@H](CCCCN2CCN(CCc3ccc(O)cc3)C(=O)C2=O)N(CCC2CCCCC2)C1=O
COc1cc(/C=C/C(=O)Nc2nnc(C(C)(C)C)s2)cc(OC)c1OC
COc1ccc(S(=O)(=O)N2CCOC23CCN(C(=O)c2c(F)cccc2Cl)CC3)cc1
CC(C)(C)OC(=O)NCCCC[C@H](NC(=O)c1[nH]cnc1C(=O)Nc1ccccc1)C(=O)OC(C)(C)C
Cc1ccccc1-n1c(-c2ccc3ccccc3n2)n[nH]c1=S
CN(CC(=O)Nc1c(Cl)cccc1Cl)C(=O)c1cc(-c2cccs2)nn1-c1ccccc1
O=[N+]([O-])c1cc(S(=O)(=O)Nc2ccccc2)ccc1NCc1ccccc1
Cn1cc(CN2CCCC(C(=O)Nc3cccc(-n4cccn4)c3)C2)cn1 (stereo unspecified)
Cc1[nH]c2ccccc2c1C(=O)CN1CCC2(CC1)OCCO2
Clc1ccc(OCCN2CCOCC2)cc1
C/C(=N\Nc1nc(C)c(C)s1)c1ccc([N+](=O)[O-])cc1
COc1cc(NC(=O)c2cnc(NCc3ccccc3)nc2C)cc(OC)c1OC
COc1cccc2sc3ccc(C#Cc4ccc(N)cc4)cc3c(=O)c12
CCn1nnnc1Sc1nc(C)nc2scc(-c3ccccc3)c12
CO/N=C(\c1nonc1N)N1CCN(c2ccc(Cl)cc2[N+](=O)[O-])CC1
O=C(NCc1ccc(Cl)s1)C1CCC(=O)N(CCc2ccccn2)C1 (stereo unspecified)
Cc1cc(Cn2nnc3ccccc32)c(O)c(C(C)(C)C)c1
Cc1nn(-c2ccccc2)c2sc(C(=O)OCc3nnc(-c4ccccc4)o3)cc12
O=C(CCCn1ncn2c(cc3occc32)c1=O)N1CCc2ccccc2C1

Potency, active:
CN(/N=C/c1cc(Br)cc(Br)c1O)c1cccc(C(F)(F)F)n1 8.91 µM
O=S(=O)(Nc1cccc2cccnc12)c1ccc2ccccc2c1 17.8 µM
Cc1ccc(C2(C)NC(=O)N(CC(=O)N3c4ccccc4NC(=O)CC3C)C2=O)cc1 (stereo unspecified) 3.55 µM
OC(c1ccccc1)c1nc(-c2ccc3c(c2)OCO3)cs1 (stereo unspecified) 11.2 µM

Potency, inconclusive:
CN(c1ccc(C(=O)N2CCCCC2)cc1)S(=O)(=O)c1ccccc1 35.5 µM [activator, single point]
COc1ccc(-c2nc(N=Nc3ccc(O)cc3)n[nH]2)cc1 31.6 µM [activator, single point]
COc1ccsc1NC(=O)OCc1ccc(Cl)cc1 3.98 µM [activator, single point]
COc1ccc(C2C=CC(=O)CC2)c(OC)c1 (stereo unspecified) 25.1 µM [activator, single point]
Cc1cc(S(=O)(=O)N2CCN(c3ccccc3O)CC2)c(C)s1 14.1 µM [activator, single point]
O=C(/C=C/c1ccco1)Nc1nc(-c2ccccn2)cs1 31.6 µM [activator, single point]
C=C1C=C(C(F)F)n2ncc(C(=O)NCCc3ccc(Cl)cc3)c2N1 28.2 µM [activator, single point]
COc1ccc(S(=O)(=O)N(CC(=O)Nc2ccccc2Cl)Cc2ccccc2)cc1 5.62 µM [activator, single point]
COC(=O)c1cc(NC(=O)N2c3ccccc3Sc3ccccc32)cc(C(=O)OC)c1 2.51 µM [activator, full curve, poor fit]
CCNC(=O)C1(C)CCCN(C(=O)c2ccc(F)c(C)c2)C1 (stereo unspecified) 4.47 µM [activator, single point]
Cc1nc2scc(C)n2c(=O)c1S(=O)(=O)Nc1ccc(OC(F)(F)F)cc1 5.62 µM [activator, single point]
CN(Cc1ccccc1)C(=O)COC(=O)c1cc2ccccc2oc1=O 31.6 µM [activator, single point]
CC(=O)c1cc(NC(=O)c2cccc(C(F)(F)F)c2)c(=O)oc1C 12.6 µM [activator, partial curve]
COc1ccc(-n2c(SCc3ccccc3F)nc3c([nH]c4ccccc43)c2=O)cc1OC 22.4 µM [activator, single point]
Cc1onc(-c2ccccc2)c1C(=O)NC(=S)NNC(=O)c1cccnc1 35.5 µM [activator, single point]
O=C(Nc1cccc(Cl)c1)OC1CCCCc2cccnc21 (stereo unspecified) 3.98 µM [activator, full curve, poor fit]
COc1ccc(S(=O)(=O)Nc2ccc(-n3cccc3)cc2)cc1 35.5 µM [activator, single point]
CCOC(=O)c1c(-c2ccc(C)o2)csc1NC(=O)CSc1nnnn1-c1ccccc1 17.8 µM [activator, partial curve]
Cc1ccc(NC(=O)C2CCN(S(=O)(=O)c3ccc(C(C)(C)C)cc3)CC2)cc1S(=O)(=O)N1CCOCC1 5.62 µM [activator, single point]
Cc1ccccc1-c1cc2nc(Oc3ccc4c(c3)OCO4)n(C)c(=O)c2s1 17.8 µM [activator, single point]
O=C1c2cccc3c([N+](=O)[O-])ccc(c23)C(=O)N1O 17.8 µM [activator, single point]
Cc1cc(=O)oc2cc(OC(C)C)ccc12 3.55 µM [activator, single point]
Cc1cc(C)c(S(=O)(=O)NCCn2c(C)cc3ccccc32)c(C)c1 17.8 µM [activator, single point]
CCCN(CC1CC1)C(=S)NC(=O)c1cc(Br)ccc1Cl 31.6 µM [activator, single point]
CN1C(=O)/C(=N\OC(=O)c2cccc3ccccc23)c2ccccc21 2.82 µM [activator, partial curve]
CCN(CC(O)CON=C1c2ccccc2-c2ccccc21)S(=O)(=O)c1ccc(Cl)cc1 (stereo unspecified) 12.6 µM [activator, partial curve]
N=c1c2c(-c3ccccc3)c(-c3ccccc3)n(Cc3ccco3)c2ncn1CCN1CCOCC1 35.5 µM [activator, single point]
CCOC(=O)CC(N)c1ccc(OC)cc1 (stereo unspecified) 22.4 µM [activator, single point]
CC(C)(O)/C=C/C[C@](C)(O)C1CC[C@]2(C)C1[C@H](O[C@H]1O[C@@H](CO)[C@H](O)[C@@H](O)[C@@H]1O)CC1[C@@]3(C)CC[C@H](O)C(C)(C)C3[C@@H](O)C[C@]12C (stereo partly specified) 5.01 µM [activator, single point]
CCCCCCCCN1C(=O)[C@H](CC(=O)NCc2ccc(OC)c(OC)c2)C[C@@]2(C(=O)OC)CC(C)(C)CC=C12 5.62 µM [activator, single point]
COc1cccc(C2C(C#N)=C(N)OC3=C2C(=O)CCC3)c1OC(=O)c1ccco1 (stereo unspecified) 22.4 µM [activator, single point]
C#CCOCCOCCOCCNc1nc(N2CCN(C(=O)[C@H](CO)n3cc([C@@H](N)C(C)C)nn3)CC2)nc(N2CCN(C(=O)[C@H](CCC(=O)O)n3cc([C@@H](N)CCCCN)nn3)CC2)n1 35.5 µM [activator, single point]
COC(=O)c1cc(OC)c(OC)cc1NC(=O)c1cc(C(C)(C)C)oc1C 5.62 µM [activator, single point]
COc1cc2nc3n(c(=O)c2cc1OC)-c1ncccc1C(=O)NC3Cc1ccccc1 (stereo unspecified) 3.98 µM [activator, single point]
CN1CCn2cnc(C(=O)Nc3ccc(CNC(=O)OC(C)(C)C)cc3)c2C1=O 5.62 µM [activator, single point]
O=C(CSc1ccccc1)N/N=C/c1ccccc1O 35.5 µM [activator, single point]
O=C1CC(N2CCC(c3nc4ccccc4[nH]3)CC2)C(=O)N1c1cccc(F)c1 (stereo unspecified) 12.6 µM [activator, partial curve]
Cc1ccc(NS(=O)(=O)c2c(C)nc3sccn3c2=O)c(C)c1 28.2 µM [activator, single point]
Cc1cccn2c(=O)c(/C=C(\C#N)C(N)=O)c(N3CCCCCC3)nc12 35.5 µM [activator, single point]

Growth rescue (activation), inconclusive:
Cc1ccc(C(=O)NNC(=S)NC(=O)COc2ccccc2)cc1 -37.5% [activator]
